#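 All cell lines were grown in 96-well plates and treated with compound for 48 hours. Abbreviation: GI50, concentration required for 50% inhibition of growth.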 Activity calls are given as the source filed them. Rule as the data show it: active = GI50 up to about 1.1 µM and inactive = higher.
# System: NCI-H322M
# Test: inhibition of tumour cell growth, NCI panel, 48 h
row,SMILES,GI50
1,O=S(=O)(N/N=C1\CC2CCC1C2)c1ccccc1 (stereo unspecified),inactive: > 100 µM
2,O=C1/C(=C/c2cccc([N+](=O)[O-])c2)CCCc2ccccc21,inactive: 17.2 µM
3,CC(=O)Nc1ccccc1S(=O)(=O)c1ccccc1,inactive: > 100 µM
4,CCOC(=O)C1=C(Nc2ccccc2)OC/C1=N\NC(=O)Cc1ccccc1,inactive: > 50 µM
5,O=C(COc1ccccc1)N(C(=O)N1CCN(c2ccccc2)CC1)S(=O)(=O)c1ccccc1,inactive: > 100 µM
6,COC1/C=C/C(C)C(O)CC(O)/C=C/C(C)C(C(C)C(OC)C(C)CCC(=O)C(C)C(C/C=C/N(C)C=O)OC)OC(=O)/C=C/C=C(\C)CC(OC)CC2=CC(=O)O[C@@H](C(C)C(OC)C1)[C@H]2O (stereo partly specified),active: 0.00883 µM
7,C[C@]12CCC(=O)C=C1CC[C@@H]1[C@@H]2[C@@H](O)C[C@@]2(C)[C@H]1CC[C@]2(O)C(=O)CO [HYDROCORTISONE],inactive: > 100 µM
8,O=C1CN(c2ccccc2)C(=O)CN1CCN1CC(=O)N(c2ccccc2)CC1=O,inactive: > 100 µM
9,O=Cc1c(O)ccc2ccc(O)c(-c3c(O)ccc4ccc(O)cc34)c12,inactive: > 100 µM
10,Cc1cc(C)c(S(=O)(=O)N2CCCN(S(=O)(=O)c3c(C)cc(C)cc3C)OCCCON(S(=O)(=O)c3c(C)cc(C)cc3C)CCCN(S(=O)(=O)c3c(C)cc(C)cc3C)OCCCO2)c(C)c1,inactive: > 100 µM
11,CCCC1CC(=O)NC(=O)C1C(=O)OC(C)(C)C (stereo unspecified),inactive: > 100 µM
12,O=C1C(CN2CCCCC2)CCC1CN1CCCCC1 (stereo unspecified),inactive: 31.8 µM
13,O=C(Cc1nc2ccccc2s1)C(=O)Nc1ccc(Cl)cc1Cl,inactive: > 100 µM
14,O=C1NC(=O)/C(=C/c2ccc(S(=O)(=O)N/N=C/c3ccccc3)cc2)N1,inactive: > 100 µM
15,COc1cc2c(cc1OC)C(Cc1ccc(Oc3cc(CC4c5cc(OC)c(OC)cc5CCN4C)ccc3O)cc1)N(C)CC2 (stereo unspecified),inactive: > 100 µM
16,C[C@H](CCCOS(C)(=O)=O)[C@H]1CC[C@H]2[C@@H]3CC[C@@H]4C[C@H](OS(C)(=O)=O)CC[C@]4(C)[C@H]3CC[C@]12C,inactive: 18.9 µM
17,CC(C)(C)OC(=O)N1CCCC1=O,inactive: > 10 µM
18,CCCCCCCCCCCCCCC(O)C1CCC(C(O)CCC(O)CCCCCC(O)CC2=CC(C)OC2=O)O1 (stereo unspecified),inactive: 1.48 µM
19,Nc1nc(Cl)cc(NCCO)n1,inactive: > 100 µM
20,O=C1NCCS(=O)(=O)N[C@@H](CC2=CC=CCC2)C(=O)N2CCCC12 (stereo partly specified),inactive: > 100 µM
21,CC(C)=CCC/C(C)=C/COC(C)(C)C1=CCC(C)CC1.CC(C)=CCC/C(C)=C/COC1CC(C)CCC1=C(C)C (stereo unspecified),inactive: > 100 µM

row,SMILES,GI50
1,OC1CN(OC/C=C/c2ccccc2)CC(O)C1O (stereo unspecified),inactive: > 100 µM
2,COc1ccc(/C=N/N=C(\N)NO)cc1F,inactive: 11.1 µM
3,C=CCCCCCCCCCOC1C=CC(OC(C)=O)C(COC(C)=O)O1 (stereo unspecified),inactive: > 100 µM
4,O=C1CCC2(CCO1)OCCO2,inactive: > 100 µM
5,CN(C)c1cccc(/C=C(\C#N)c2ccccc2)c1,active: 0.497 µM
6,COc1ccc(CC2C(=O)NC(C)C(=O)N(C)C3C(=O)N(C)C(Cc4ccc(O)c(c4)Oc4ccc(cc4)C3O)C(=O)NC(C)C(=O)NC(C)C(=O)N2C)cc1 (stereo unspecified),active: 0.00537 µM
7,CC(C)C[C@H](NC(=O)[C@@H](Cc1cccc2ccccc12)NC(=O)N1CCOCC1)B(O)O,inactive: 19.8 µM
8,[C-]#[N+]C(C)(C)C[C@H]1CC(C)C2CCC(C)C3([N+]#[C-])CCC(=C)C1[C@H]23 (stereo partly specified),inactive: 8.13 µM
9,C#CCN(Cc1ccc2nc(-c3ccccc3)c(Cl)nc2c1)c1ccc(F)cc1,inactive: 89.7 µM
10,COc1ccc(/C=C2\CCC(C)C3C2=NN(c2ccccc2)C3c2ccc(OC)c(OC)c2)cc1OC (stereo unspecified),inactive: 4.04 µM
11,C=CCn1c(=S)sc2c(O)ncnc21,inactive: > 100 µM
12,O=C1CCCC2C3CC(CN12)C1CCCCN1C3.[O-][Cl+3]([O-])([O-])O (stereo unspecified),inactive: > 100 µM
13,COc1ccc(C(C#N)NNc2nc(C)cc(O)n2)cc1OC (stereo unspecified),inactive: > 100 µM
14,CC(NCc1c(O)ccc2c(-c3ccccc3)cc(=O)oc12)C(=O)O (stereo unspecified),inactive: > 100 µM
15,COC(=O)c1nc(NN)cc(O)c1CCCCCc1c(O)nc(NN)nc1C(=O)OC,inactive: > 100 µM
16,NC1=NNC(=O)c2nnc3c(C(=O)O)cnn3c2S1,inactive: > 100 µM
17,O=C1CC2CC(CC3(CO3)C2)C1F (stereo unspecified),inactive: > 100 µM
18,c1ccc(CN(Cc2ccccn2)Cn2cccn2)nc1,inactive: 39.5 µM
19,CCCCSCC(NC(=O)/C=C/c1c(C)[nH]c(=O)[nH]c1=O)C(=O)OC (stereo unspecified),inactive: 31.1 µM
20,CC(C)OC(=O)Nc1cccc(Cl)c1 [CHLORPROPHAM],inactive: > 100 µM
